# Assay results reported in patent publication US5464944A (priority 1993, dated 1995).
# Tests used:
# F. moniliforme = tested on: F. moniliforme
# Experimental: (§1) The antifungal activity of compounds synthesized in accord with this invention was measured using art-recognized methods, as described in Duvick et al., J. Biol. Chem. 26:18814-18820 (1992). Results are as follows:
# (§2) MIC is the minimum inhibitory concentration, the concentration in μg/ml achieving a score of 1 or greater. MCIC is the Minimum Complete Inhibitory Concentration, the concentration in μg/ml achieving a score of 3 or greater.
# A. flavus = tested on: A. flavus
# Experimental: as §1, §2
# F. graminearum = format: cell-based
Substance,MCIC (Minimum Complete Inhibitory Concentration) (F. moniliforme),MIC (minimum inhibitory concentration) (F. moniliforme),MCIC (Minimum Complete Inhibitory Concentration) (A. flavus),MIC (minimum inhibitory concentration) (A. flavus),MIC (minimum inhibitory concentration) (F. graminearum; concentration achieving a score of 1 or greater) [µg/mL],MCIC (Minimum Complete Inhibitory Concentration) (F. graminearum; concentration achieving a score of 3 or greater) [µg/mL],"MIC (minimum inhibitory concentration) (F. moniliforme; F. moniliforme, concentration achieving a score of 1 or greater) [µg/mL]","MCIC (Minimum Complete Inhibitory Concentration) (F. moniliforme; F. moniliforme, concentration achieving a score of 3 or greater) [µg/mL]","MIC (minimum inhibitory concentration) (A. flavus; A. flavus, concentration achieving a score of 1 or greater) [µg/mL]","MCIC (Minimum Complete Inhibitory Concentration) (A. flavus; A. flavus, concentration achieving a score of 3 or greater) [µg/mL]"
Cecropin A,> 80,80,> 80,80,60,> 80,,,,
Mastoparan,,,,,,,2.5,10,20,40

# Like-named read-outs stand apart in the source and are kept apart here.
